Experimental data taken from the supplement of paper PMC4604168 (melanoma cell lines).
The other results are listed elsewhere or left out. Repeats are few or missing, and single values can be far off.

Assays:
Test in all cases: cell count relative to DMSO control; melanoma cells; higher = more viable cells
Conditions in all cases: library dose: standard library concentration; 72 h
[1] = tested on: G361
[2] = tested on: IPC-298
[3] = tested on: IST-MEL1
[4] = tested on: LB2518-MEL
[5] = tested on: LOXIMVI
[6] = tested on: MEL-HO
[7] = tested on: MZ2-MEL
[8] = tested on: MeWo
[9] = tested on: RPMI7951
[10] = tested on: RVH-421
[11] = tested on: SkMel28
[12] = tested on: SkMel2
[13] = tested on: SkMel30
[14] = tested on: SkMel5
[15] = tested on: UACC257
[16] = tested on: UACC62
[17] = tested on: WM115
[18] = tested on: WM1716
[19] = tested on: WM3526
[20] = tested on: WM1745
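Note: cells treated in 1,536-well plates, then fixed and DAPI-stained, with nuclei counted from automated high-throughput microscope images.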

For `Cn1sc(=O)n(Cc2ccccc2)c1=O` + C/C(O)=C(\C#N)C(=O)Nc1cc(Br)ccc1Br [LFM-A13] (first compound 2 µM, partner dose 10 µM), the cell count [1] was 98.6%, the cell count [2] was 94.7% and the cell count [3] was 100%. It also gave a cell count [4] of 111%, a cell count [5] of 74.3% and a cell count [6] of 92.8%. For the same compound, the cell count [7] was 94.1%, the cell count [8] was 95.2% and the cell count [9] was 84.2%. For the same compound, the cell count [10] was 92.7%, the cell count [11] was 74% and the cell count [12] was 104%. The cell count [13] was 91.8%, the cell count [14] was 76.9% and the cell count [15] was 97%. For the same compound, the cell count [16] was 88%, the cell count [17] was 106% and the cell count [18] was 103%. For the same compound, the cell count [19] was 97.2%.
`CC[C@]1(O)C[C@H]2CN(CCc3c([nH]c4ccccc34)[C@@](C(=O)OC)(c3cc4c(cc3OC)N(C=O)[C@H]3[C@@](O)(C(=O)OC)[C@H](OC(C)=O)[C@]5(CC)C=CCN6CC[C@]43[C@@H]65)C2)C1` [vincristine] + O=C(Oc1ccc([N+](=O)[O-])cc1)N1CCC(C(O)(c2ccc3c(c2)OCO3)c2ccc3c(c2)OCO3)CC1 [JZL184] (first compound 0.0005 µM, partner dose 5 µM) gave a cell count [1] of 84.1%, a cell count [2] of 102% and a cell count [3] of 89.4%. It also gave a cell count [4] of 103%, a cell count [5] of 67.3% and a cell count [6] of 104%. The cell count [7] was 87.3%, the cell count [8] was 30.8% and the cell count [9] was 23.2%. It also gave a cell count [10] of 58.5%, a cell count [11] of 69.8% and a cell count [12] of 77.6%. The cell count [13] was 35.4%, the cell count [14] was 37.2% and the cell count [15] was 59.1%. It also gave a cell count [16] of 41.2%, a cell count [17] of 34.9% and a cell count [18] of 31.4%. The cell count [19] was 40.2%.
In the case of `O=c1[nH]nc(Sc2ncc([N+](=O)[O-])s2)n1-c1ccc2c(c1)OCCO2` + O=C(Oc1ccc([N+](=O)[O-])cc1)N1CCC(C(O)(c2ccc3c(c2)OCO3)c2ccc3c(c2)OCO3)CC1 [JZL184] (first compound 1 µM, partner dose 5 µM), the cell count [1] is reported as 109%, the cell count [2] is reported as 91.1% and the cell count [3] is reported as 98.8%. It also gave a cell count [4] of 101%, a cell count [5] of 102% and a cell count [6] of 103%. For the same compound, the cell count [7] was 100%, the cell count [8] was 94.4% and the cell count [9] was 84%. It also gave a cell count [10] of 94.2%, a cell count [11] of 71% and a cell count [12] of 94.1%. It also gave a cell count [13] of 98.4%, a cell count [14] of 64.1% and a cell count [15] of 87.7%. It also gave a cell count [16] of 71.9%, a cell count [17] of 89.8% and a cell count [18] of 78.7%. For the same compound, the cell count [19] was 81.2%.
`CCCCCCCCCCCCCCCCCCOP(=O)([O-])OC1CC[N+](C)(C)CC1` [Perifosine] + C/C(O)=C(\C#N)C(=O)Nc1cc(Br)ccc1Br [LFM-A13] (first compound 2 µM, partner dose 10 µM) gave a cell count [1] of 113%, a cell count [2] of 86.4% and a cell count [3] of 105%. It also gave a cell count [4] of 87.3%, a cell count [5] of 81.1% and a cell count [6] of 93.9%. The cell count [7] was 88%, the cell count [8] was 90.7% and the cell count [9] was 49.3%. The cell count [10] was 103%, the cell count [11] was 65% and the cell count [12] was 103%. For the same compound, the cell count [13] was 93.6%, the cell count [14] was 74.1% and the cell count [15] was 87.1%. The cell count [16] was 84.6%, the cell count [17] was 83.5% and the cell count [18] was 79.7%. For the same compound, the cell count [19] was 96.7%.
`Nc1ncn([C@H]2C[C@H](O)[C@@H](CO)O2)c(=O)n1` [decitabine] + C/C(O)=C(\C#N)C(=O)Nc1cc(Br)ccc1Br [LFM-A13] (first compound 0.5 µM, partner dose 10 µM) was tested, and the cell count [1] was 65.6%, the cell count [2] was 64.2% and the cell count [3] was 76.5%. The cell count [4] was 85.7%, the cell count [5] was 111% and the cell count [6] was 75.3%. It also gave a cell count [7] of 88.3%, a cell count [8] of 71.7% and a cell count [9] of 69.3%. The cell count [10] was 64%, the cell count [11] was 69.9% and the cell count [12] was 91.5%. It also gave a cell count [13] of 95.6%, a cell count [14] of 93.2% and a cell count [15] of 97.4%. It also gave a cell count [16] of 80.5%, a cell count [17] of 66.4% and a cell count [18] of 80%. It also gave a cell count [19] of 89.2%.
`CS(=O)(=O)CCNCc1ccc(-c2ccc3ncnc(Nc4ccc(OCc5cccc(F)c5)c(Cl)c4)c3c2)o1` [lapatinib] + C/C(O)=C(\C#N)C(=O)Nc1cc(Br)ccc1Br [LFM-A13] (first compound 4 µM, partner dose 10 µM) was tested, and the cell count [1] was 63.4%, the cell count [2] was 80.1% and the cell count [3] was 88.3%. It also gave a cell count [4] of 98.9%, a cell count [5] of 101% and a cell count [6] of 81.2%. It also gave a cell count [7] of 76%, a cell count [8] of 65% and a cell count [9] of 64.9%. The cell count [10] was 86%, the cell count [11] was 70.1% and the cell count [12] was 79.4%. The cell count [13] was 85.7%, the cell count [14] was 64.8% and the cell count [15] was 101%. It also gave a cell count [16] of 59%, a cell count [17] of 91.9% and a cell count [18] of 80.8%. For the same compound, the cell count [19] was 69.3%.
For `COc1ccc(C2=N[C@@H](c3ccc(Cl)cc3)[C@@H](c3ccc(Cl)cc3)N2C(=O)N2CCNC(=O)C2)c(OC(C)C)c1` [Nutlin-3] + Cc1cc(SCc2sc(-c3ccc(C(F)(F)F)c(F)c3)nc2C)ccc1OCC(=O)O [GW0742] (first compound 0.5 µM, partner dose 10 µM), the cell count [1] was 65.4%, the cell count [2] was 97.2% and the cell count [3] was 86.7%. It also gave a cell count [4] of 59%, a cell count [5] of 78.7% and a cell count [6] of 93.7%. For the same compound, the cell count [7] was 109%, the cell count [8] was 77.6% and the cell count [9] was 74.8%. For the same compound, the cell count [10] was 50.3%, the cell count [11] was 58.1% and the cell count [12] was 81.4%. For the same compound, the cell count [13] was 92.9%, the cell count [14] was 70% and the cell count [15] was 72.2%. The cell count [16] was 76.3%, the cell count [17] was 99.7% and the cell count [18] was 68.7%. It also gave a cell count [19] of 76.9%.
`Cn1c(=O)n(-c2ccc(C(C)(C)C#N)cc2)c2c3cc(-c4cnc5ccccc5c4)ccc3ncc21` + C/C(O)=C(\C#N)C(=O)Nc1cc(Br)ccc1Br [LFM-A13] (first compound 0.02 µM, partner dose 10 µM) was tested, and the cell count [1] was 54.8%, the cell count [2] was 73.3% and the cell count [3] was 79%. The cell count [4] was 85.8%, the cell count [5] was 82% and the cell count [6] was 55.5%. The cell count [7] was 79.1%, the cell count [8] was 64.8% and the cell count [9] was 72.8%. It also gave a cell count [10] of 77%, a cell count [11] of 50.7% and a cell count [12] of 70.1%. The cell count [13] was 75.1%, the cell count [14] was 79.5% and the cell count [15] was 112%. It also gave a cell count [16] of 72.4%, a cell count [17] of 79.3% and a cell count [18] of 68.1%. The cell count [19] was 73.3%.
For `Cc1cc(Nc2cc(N3CCN(C)CC3)nc(/C=C/c3ccccc3)n2)n[nH]1` + C/C(O)=C(\C#N)C(=O)Nc1cc(Br)ccc1Br [LFM-A13] (first compound 0.2 µM, partner dose 10 µM), the cell count [1] was 89%, the cell count [2] was 92.9% and the cell count [3] was 85%. The cell count [4] was 82.4%, the cell count [5] was 98.3% and the cell count [6] was 82.2%. It also gave a cell count [7] of 76.7%, a cell count [8] of 73.9% and a cell count [9] of 90.4%. It also gave a cell count [10] of 92.4%, a cell count [11] of 72% and a cell count [12] of 103%. For the same compound, the cell count [13] was 82.9%, the cell count [14] was 61% and the cell count [15] was 94.5%. The cell count [16] was 70%, the cell count [17] was 91.7% and the cell count [18] was 81.7%. The cell count [19] was 88.3%.
Compound `CC(=O)c1c(C)c2cnc(Nc3ccc(N4CCNCC4)cn3)nc2n(C2CCCC2)c1=O` [palbociclib] + C/C(O)=C(\C#N)C(=O)Nc1cc(Br)ccc1Br [LFM-A13] (first compound 0.2 µM, partner dose 10 µM) has a cell count [1] of 81.5%, a cell count [2] of 88.6% and a cell count [3] of 69.2%. The cell count [4] was 91.6%, the cell count [5] was 97.9% and the cell count [6] was 85.9%. It also gave a cell count [7] of 76.2%, a cell count [8] of 60.3% and a cell count [9] of 77.4%. It also gave a cell count [10] of 100%, a cell count [11] of 51.4% and a cell count [12] of 70.7%. The cell count [13] was 78.7%, the cell count [14] was 68.3% and the cell count [15] was 91.8%. It also gave a cell count [16] of 62.4%, a cell count [17] of 48.9% and a cell count [18] of 37.3%. It also gave a cell count [19] of 53.8%.
In the case of `CC(=O)O[C@@]12CO[C@@H]1C[C@H](O)[C@@]1(C)C(=O)[C@H](O)C3=C(C)[C@@H](OC(=O)[C@H](O)[C@@H](NC(=O)OC(C)(C)C)c4ccccc4)C[C@@](O)([C@@H](OC(=O)c4ccccc4)[C@H]21)C3(C)C` [Docetaxel] + C[As](C)SC[C@H](NC(=O)CC[C@H](N)C(=O)O)C(=O)NCC(=O)O [Darinaparsin] (first compound 0.0005 µM, partner dose 2 µM), the cell count [1] is reported as 14.9%, the cell count [2] is reported as 41.8% and the cell count [3] is reported as 37.9%. For the same compound, the cell count [5] was 63.4%, the cell count [6] was 38.9% and the cell count [8] was 20.4%. It also gave a cell count [9] of 21.1%, a cell count [10] of 55.2% and a cell count [11] of 19.9%. The cell count [12] was 19.4%, the cell count [13] was 43.4% and the cell count [14] was 32.2%. The cell count [15] was 72.7%, the cell count [16] was 50.9% and the cell count [17] was 36.2%. It also gave a cell count [18] of 33.9%, a cell count [20] of 32.6% and a cell count [19] of 34.9%.
`Cc1cc(SCc2sc(-c3ccc(C(F)(F)F)c(F)c3)nc2C)ccc1OCC(=O)O` + COc1cc2ncnc(Nc3ccc(Oc4ccccc4)cc3)c2cc1OC [SrcI1] (first compound 10 µM, partner dose 10 µM) gave a cell count [1] of 69.2%, a cell count [2] of 72.8% and a cell count [3] of 85.6%. The cell count [5] was 77.5%, the cell count [6] was 76.4% and the cell count [8] was 81.4%. The cell count [9] was 71.6%, the cell count [10] was 112% and the cell count [11] was 92.2%. For the same compound, the cell count [12] was 108%, the cell count [13] was 88.8% and the cell count [14] was 66.4%. The cell count [15] was 82.2%, the cell count [16] was 87.4% and the cell count [17] was 88.3%. It also gave a cell count [18] of 93.6%, a cell count [20] of 70.2% and a cell count [19] of 58%.
